From patent US8067379B2, “Sulfur compounds as inhibitors of hepatitis C virus NS3 serine protease” (Schering Corporation, priority 2004, dated 2011) come the findings set out here.

The target of the first test is Recombinant heterodimeric HCV NS3/NS4A protease (strain 1a) (Hepatitis C virus genotype 1a, UniProt P27958). Nature of the test: Spectrophotometric assay for HCV serine protease inhibitory activity (chromogenic ester substrates). The class given is biochemical. Conditions: Table 3, sulfide compounds; HCV serine protease; read-out: Ki* range.
With `CC(C)(C)[C@H](NC(=O)NC1(CCSc2ccccc2)CCCCC1)C(=O)N1C[C@H]2[C@@H]([C@H]1C(=O)NC(CC1CC1)C(=O)C(N)=O)C2(C)C` (stereo partly drawn) [Compound 113], the Ki is below 75 nM.

Consider `C=CCNC(=O)C(=O)C(CC1CC1)NC(=O)[C@@H]1[C@@H]2[C@H](CN1C(=O)[C@@H](NC(=O)NC1(CSC(C)(C)C)CCCCC1)C(C)(C)C)C2(C)C` (stereo partly drawn) [Compound 120], for which the Ki was above 250 nM.

Turning to `CC(C)[C@@H](CSc1ccccc1)NC(=O)N[C@H](C(=O)N1C[C@H]2[C@@H]([C@H]1C(=O)NC(CC1CC1)C(=O)C(N)=O)C2(C)C)C(C)(C)C` (stereo partly drawn) [Compound 104], the inhibition constant (Ki) was below 75 nM.

Staying with this test, now noted: Table 3, sulfone compounds, rows without Prep. Ex. number; read-out: Ki* (numeric value, unlabelled structures at end of sulfone table, column without head).
In the case of `CCC(C)(C)S(=O)(=O)CC1(NC(=O)N[C@H](C(=O)N2C[C@H]3[C@@H]([C@H]2C(=O)NC(CC2CC2)C(=O)C(=O)NCCC(=O)OC(C)(C)C)C3(C)C)C2(C)CCCCC2)CCCCC1` (stereo partly drawn), the Ki was determined as 19 nM.

As for `C#CCCNC(=O)C(=O)C(CC1CC1)NC(=O)[C@@H]1[C@@H]2[C@H](CN1C(=O)[C@@H](NC(=O)NC1(CS(=O)(=O)C(C)(C)CC)CCCCC1)C1(C)CCCCC1)C2(C)C` (stereo partly drawn), the inhibition constant (Ki) turned out to be 20 nM.

Still in this test, the particulars now being: Table 3, sulfone compounds, rows without Prep. Ex. number; read-out: Ki* range (class symbol, unlabelled structures at end of sulfone table, column without head).
For the compound `C=CCNC(=O)C(=O)C(CC1CC1)NC(=O)[C@@H]1[C@@H]2[C@H](CN1C(=O)[C@@H](NC(=O)NC1(CS(=O)(=O)C(C)(C)C)CCCCC1)C(C)(C)C)[C@H]2c1ccccc1` (stereo partly drawn), the Ki is above 250 nM.

Still in this test, the particulars now being: Table 3, sulfone compounds; HCV serine protease; read-out: Ki* range.
As to `C#CCCC(NC(=O)[C@@H]1[C@@H]2[C@H](CN1C(=O)[C@@H](NC(=O)NC1(CS(C)(=O)=O)CCCCC1)C(C)(C)C)C2(C)C)C(=O)C(=O)NCCC` (stereo partly drawn) [Compound 246], the Ki was below 75 nM.

Regarding `C=CCNC(=O)C(=O)C(CC1CC1)NC(=O)[C@@H]1[C@@H]2[C@H](CN1C(=O)[C@@H](NC(=O)NC1(CS(C)(=O)=O)CCCCC1)C(C)(C)C)C2(C)C` (stereo partly drawn) [Compound 201], the inhibitory constant (Ki) is below 75 nM.

Regarding `CC(C)C[C@@](C)(CS(=O)(=O)C(C)(C)C)NC(=O)N[C@H](C(=O)N1C[C@H]2[C@@H]([C@H]1C(=O)NC(CC1CCC1)C(=O)C(N)=O)C2(C)C)C(C)(C)C` (stereo partly drawn) [Compound 297], the Ki was below 75 nM.

As for `CC(C)(C)[C@H](NC(=O)NC1(CS(C)(=O)=O)CCCCC1)C(=O)N1C[C@H]2C[C@@H]([C@H]1C(=O)NC(CC1CCC1)C(=O)C(N)=O)C2(C)C` (stereo partly drawn) [Compound 235], the Ki was below 75 nM.

For `C[C@@]1(CN=[N+]=[N-])C[C@H]2[C@H](CN(C(=O)[C@@H](NC(=O)NC3(CS(C)(=O)=O)CCCCC3)C3CCCCC3)[C@@H]2C(=O)NC(CC2CC2)C(=O)C(N)=O)O1` (stereo partly drawn) [Compound 219], the Ki was below 75 nM.

`C#CCCC(NC(=O)[C@@H]1[C@@H]2[C@H](CN1C(=O)[C@@H](NC(=O)NC1(CS(=O)(=O)C(C)(C)C)CCCCC1)C1CCCCC1)C2(C)C)C(=O)C(=O)NCC=C` (stereo partly drawn) [Compound 269]: the Ki is below 75 nM.

For `C=CCNC(=O)C(=O)C(CCCC)NC(=O)[C@@H]1[C@@H]2[C@H](CN1C(=O)[C@@H](NC(=O)N[C@H](CS(=O)(=O)Cc1ccccc1)c1ccccc1)C(C)(C)C)C2(C)C` (stereo partly drawn) [Compound 153], the inhibition constant (Ki) was above 250 nM.

The test is the same for the next values; noted with them: Table 3A; class symbols; read-out: Ki* Range.
For `C=CCNC(=O)C(=O)C(CC1CC1)NC(=O)[C@@H]1[C@@H]2[C@H](CN1C(=O)[C@@H](NC(=O)NC1(C3CCCS3(=O)=O)CCCCC1)C1(C)CCCCC1)C2(C)C` (stereo partly drawn) [Compound 597], the Ki was below 75 nM.

With `C#CCNC(=O)C(=O)[C@H](CCC1CC1)NC(=O)[C@@H]1[C@@H]2[C@H](CN1C(=O)[C@@H](NC(=O)NC1(C3CCCCS3(=O)=O)CCCCC1)C(C)(C)C)C2(C)C` (stereo partly drawn) [Compound 754], the inhibitory constant (Ki) was below 75 nM.

Consider `CC1([C@H](NC(=O)NC2(CS(=O)(=O)C(C)(C)C)CCCCC2)C(=O)N2C[C@H]3[C@@H]([C@H]2C(=O)N[C@@H](CCC2CC2)C(=O)C(=O)NCC2CC2)C3(C)C)CCCCC1` [Compound 883-cs], for which the Ki was below 75 nM.

As for `CCCC[C@H](NC(=O)[C@@H]1[C@@H]2[C@H](CN1C(=O)[C@@H](NC(=O)NC1([C@H]3CCCS3(=O)=O)CCCCC1)C(C)(C)C)C2(Cl)Cl)C(=O)C(=O)NCCC` [Compound 883-dp], the inhibitory constant (Ki) is below 75 nM.

With `CC1([C@H](NC(=O)NC2(CS(=O)(=O)CC(F)(F)F)CCCCC2)C(=O)N2C[C@H]3[C@@H]([C@H]2C(=O)NC(CC2CC2)C(=O)C(=O)NC2CC2)C3(C)C)CCCCC1` (stereo partly drawn) [Compound 541], the Ki is below 75 nM.

Turning to `CC1(C)C[C@H]2[C@H](CN(C(=O)[C@@H](NC(=O)NC3(CS(=O)(=O)C(C)(C)C)CCCCC3)C(C)(C)C)[C@@H]2C(=O)NC(CC2CC2)C(=O)C(=O)NC2CC2)O1` (stereo partly drawn) [Compound 559], the Ki lay in the range of 75 to 250 nM.

On to `CCCCC(NC(=O)[C@@H]1[C@@H]2[C@H](CN1C(=O)[C@@H](NC(=O)NC1(C3CCCS3(=O)=O)CCCCC1)C1(C)CCCCC1)C2(C)C)C(=O)C(=O)NC1CC1` (stereo partly drawn) [Compound 640], for which the Ki was below 75 nM.

For the compound `CCCNC(=O)C(=O)C(CCC)NC(=O)[C@@H]1[C@@H]2[C@H](CN1C(=O)[C@@H](NC(=O)NC1(CS(=O)(=O)C(C)(C)C)CCCCC1)C(C)(C)C)C2(Cl)Cl` (stereo partly drawn) [Compound 593], the Ki is below 75 nM.

Turning to `C=CCNC(=O)C(=O)C(CC1CC1)NC(=O)[C@@H]1CC2(CN1C(=O)[C@@H](NC(=O)NC1(CS(=O)(=O)C(C)(C)C)CCCCC1)C(C)(C)C)SCCCS2` (stereo partly drawn) [Compound 646], the inhibition constant Ki was below 75 nM.

As for `C=CCNC(=O)C(=O)C(CCC1CCC1)NC(=O)[C@@H]1[C@@H]2[C@H](CN1C(=O)[C@@H](NC(=O)NC1(CS(=O)(=O)C(C)(C)C)CCCCC1)C(C)(C)C)C2(C)C` (stereo partly drawn) [Compound 528], the Ki was below 75 nM.

Consider `CCCNC(=O)C(=O)[C@H](CC1CC1)NC(=O)[C@@H]1[C@@H]2[C@H](CN1C(=O)[C@@H](NC(=O)NC1([C@H]3CCCS3(=O)=O)CCCCC1)C1CCCCC1)C2(C)C` [Compound 883-cc], for which the Ki was below 75 nM.

As to `C#CCNC(=O)C(=O)C(CCCC)NC(=O)[C@@H]1[C@@H]2[C@H](CN1C(=O)[C@@H](NC(=O)NC1(CS(=O)(=O)C(C)(C)C)CCCCC1)C1(C)CCCCC1)C2(C)C` (stereo partly drawn) [Compound 444], the Ki is below 75 nM.

As for `C=CCNC(=O)C(=O)C(CCC1CCC1)NC(=O)[C@@H]1[C@@H]2[C@H](CN1C(=O)[C@@H](NC(=O)NC1(CS(=O)(=O)C(C)(C)C)CCCCC1)C1(C)CCCCC1)C2(C)C` (stereo partly drawn) [Compound 535], the inhibition constant Ki was below 75 nM.

`C=CCNC(=O)C(=O)C(CC(F)F)NC(=O)[C@@H]1[C@@H]2[C@H](CN1C(=O)[C@@H](NC(=O)NC1(CS(=O)(=O)C(C)(C)C)CCCCC1)C1(C)CCCCC1)C2(C)C` (stereo partly drawn) [Compound 429]: the inhibition constant Ki is below 75 nM.

Regarding `C=CCNC(=O)C(=O)C(CCCCF)NC(=O)[C@@H]1[C@@H]2[C@H](CN1C(=O)[C@@H](NC(=O)NC1(CS(=O)(=O)C(C)(C)C)CCCCC1)C(C)(C)C)C2(C)C` (stereo partly drawn) [Compound 486], the Ki is below 75 nM.

With `CCCC(NC(=O)[C@@H]1[C@@H]2[C@H](CN1C(=O)[C@@H](NC(=O)NC1(CS(=O)(=O)C(C)(C)C)CCCCC1)C1(C)CCCCC1)C2(C)C)C(=O)C(=O)NCc1ccccc1` (stereo partly drawn) [Compound 691], the Ki was below 75 nM.

On to `C=CCNC(=O)C(=O)C(CC1CC1)NC(=O)[C@@H]1[C@@H]2[C@H](CN1C(=O)[C@@H](NC(=O)NC1(CS(C)(=O)=O)CCCCC1)C1(C)CCCCC1)C2(C)C` (stereo partly drawn) [Compound 494], for which the Ki was below 75 nM.

With `CC(C)(C)[C@H](NC(=O)NC1(CS(C)(=O)=O)CCCCC1)C(=O)N1C[C@H]2[C@@H]([C@H]1C(=O)NC(CC1CC1)C(=O)C(=O)NC1CC1)C2(C)C` (stereo partly drawn) [Compound 492], the Ki is below 75 nM.

For `CNC(=O)C(=O)[C@H](CC1CC1)NC(=O)[C@@H]1[C@@H]2[C@H](CN1C(=O)[C@@H](NC(=O)NC1([C@@H]3CCCS3(=O)=O)CCCCC1)C(C)(C)C)C2(C)C` [Compound 883-er], the inhibition constant (Ki) was below 75 nM.

`CC1([C@H](NC(=O)NC2(CS(=O)(=O)C(C)(C)CO)CCCCC2)C(=O)N2C[C@H]3[C@@H]([C@H]2C(=O)N[C@@H](CCC2CC2)C(=O)C(=O)NC2CC2)C3(C)C)CCCCC1` [Compound 762]: the Ki is below 75 nM.

`CCCC(NC(=O)[C@@H]1CC2(CN1C(=O)[C@@H](NC(=O)NC1(CS(=O)(=O)C(C)(C)C)CCCCC1)C(C)(C)C)SCCCS2)C(=O)C(=O)NC1CC1` (stereo partly drawn) [Compound 659]: the inhibition constant (Ki) was below 75 nM.

In the case of `CCNC(=O)C(=O)[C@H](CCC1CC1)NC(=O)[C@@H]1[C@@H]2[C@H](CN1C(=O)[C@@H](NC(=O)NC1([C@H](C)S(=O)(=O)C(C)(C)C)CCCCC1)C1(C)CCCCC1)C2(C)C` [Compound 883-fc], the Ki was below 75 nM.

For `CCCC[C@H](NC(=O)[C@@H]1[C@@H]2[C@H](CN1C(=O)[C@@H](NC(=O)NC1(C3CCCCS3(=O)=O)CCCCC1)C1(C)CCCCC1)C2(C)C)C(=O)C(=O)NC1CC1` (stereo partly drawn) [Compound 797], the Ki was below 75 nM.

Turning to `CCCC(NC(=O)[C@@H]1[C@@H]2[C@H](CN1C(=O)[C@@H](NC(=O)NC1(CS(=O)(=O)CC)CCCCC1)C1(C)CCCCC1)C2(C)C)C(=O)C(=O)NC1CC1` (stereo partly drawn) [Compound 539], the Ki was below 75 nM.

In the case of `C=CCNC(=O)C(=O)[C@H](CCC)NC(=O)[C@@H]1[C@@H]2[C@H](CN1C(=O)[C@@H](NC(=O)NC1(C3CCCS3(=O)=O)CCCCC1)C1CCCCC1)C2(C)C` (stereo partly drawn) [Compound 674], the inhibition constant (Ki) is below 75 nM.

On to `C=CCNC(=O)C(=O)[C@H](CCC1CC1)NC(=O)[C@@H]1[C@@H]2[C@H](CN1C(=O)[C@@H](NC(=O)NC1([C@@H]3CCCS3(=O)=O)CCCCC1)C(C)(C)C)C2(Cl)Cl` [Compound 883-f], for which the inhibitory constant (Ki) is below 75 nM.

The test is the same for the next values; noted with them: Table 4A; read-out: Ki* Range.
As to `C=CCNC(=O)C(=O)C(CC1CC1)NC(=O)[C@@H]1[C@@H]2[C@H](CN1C(=O)[C@@H](NC(=O)N[C@H](CS(=O)(=O)N(C)C(C)(C)C)C(C)C)C1(C)CCCCC1)C2(C)C` (stereo partly drawn) [Compound 1111], the Ki is above 250 nM.

Turning to `C=CCNC(=O)C(=O)C(CCCC)NC(=O)[C@@H]1[C@@H]2[C@H](CN1C(=O)[C@@H](NC(=O)N[C@H](CS(=O)(=O)N(C)C(C)(C)C)C(C)C)C1(C)CCCCC1)C2(C)C` (stereo partly drawn) [Compound 1110], the inhibition constant (Ki) is below 75 nM.

With `C=CCNC(=O)C(=O)C(CCC)NC(=O)[C@@H]1[C@@H]2[C@H](CN1C(=O)[C@@H](NC(=O)N[C@@H]([C@@H]1CCN(Cc3ccc(OC)cc3)S1(=O)=O)C(C)(C)C)C1(C)CCCCC1)C2(C)C` (stereo partly drawn) [Compound 1118], the Ki is above 250 nM.

What is called Ki is a dissociation constant, usually derived from enzyme kinetics or from competition with a known ligand.
